Measured values: PMC4336329 (PLoS ONE, 2015)
About 2,200 (0.71%) of roughly 310,000 compounds showed an effect of 50% or more. Effects have a minus sign here. Some of the results follow.

Molecular target: human ether-à-go-go-related gene (hERG) potassium channel (human, UniProt Q12809)
Experiment: primary screen, population patch clamp on CHO cells stably expressing hERG

human ether-à-go-go-related gene (hERG) potassium channel, sequence (Q12809 whole entry, looked up): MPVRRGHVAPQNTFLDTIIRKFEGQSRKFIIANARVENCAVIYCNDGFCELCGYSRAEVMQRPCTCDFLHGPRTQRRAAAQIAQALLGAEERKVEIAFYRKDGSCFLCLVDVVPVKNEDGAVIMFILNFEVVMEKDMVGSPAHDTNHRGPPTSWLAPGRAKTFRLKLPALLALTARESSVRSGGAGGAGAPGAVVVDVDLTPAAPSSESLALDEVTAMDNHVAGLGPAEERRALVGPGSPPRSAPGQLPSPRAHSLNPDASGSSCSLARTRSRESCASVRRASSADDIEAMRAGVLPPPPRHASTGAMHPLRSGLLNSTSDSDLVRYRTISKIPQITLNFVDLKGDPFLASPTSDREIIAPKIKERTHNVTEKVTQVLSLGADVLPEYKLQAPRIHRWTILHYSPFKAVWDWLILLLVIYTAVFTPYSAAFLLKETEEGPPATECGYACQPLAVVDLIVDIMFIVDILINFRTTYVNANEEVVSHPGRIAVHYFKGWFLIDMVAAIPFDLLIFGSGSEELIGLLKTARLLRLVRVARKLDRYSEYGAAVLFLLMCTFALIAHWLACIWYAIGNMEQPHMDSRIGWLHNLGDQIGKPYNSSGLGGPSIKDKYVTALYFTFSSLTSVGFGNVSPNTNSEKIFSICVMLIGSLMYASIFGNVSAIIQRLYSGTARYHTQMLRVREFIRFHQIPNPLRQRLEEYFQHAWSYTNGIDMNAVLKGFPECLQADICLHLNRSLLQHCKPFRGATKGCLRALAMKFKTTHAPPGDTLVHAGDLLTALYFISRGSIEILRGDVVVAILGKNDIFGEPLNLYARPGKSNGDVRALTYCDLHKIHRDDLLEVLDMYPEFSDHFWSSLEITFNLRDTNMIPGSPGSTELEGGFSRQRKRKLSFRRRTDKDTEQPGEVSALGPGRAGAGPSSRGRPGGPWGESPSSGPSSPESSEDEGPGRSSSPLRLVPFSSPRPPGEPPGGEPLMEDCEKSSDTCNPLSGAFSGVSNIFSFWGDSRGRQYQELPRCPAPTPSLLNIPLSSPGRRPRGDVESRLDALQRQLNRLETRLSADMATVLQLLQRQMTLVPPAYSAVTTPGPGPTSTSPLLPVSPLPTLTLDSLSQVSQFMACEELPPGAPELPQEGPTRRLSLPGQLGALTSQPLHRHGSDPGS

**Q.** Which “hERG current change (%, negative = inhibition) at 1uM” value does the source give for Cc1ccccc1NC(=O)CN1C(=O)c2ccccc2C1=O here?
**A.** 9.9%

**Q.** Which “hERG current change (%, negative = inhibition) at 1uM” value does the source give for COc1ccc(CN2CCn3ncc(C(=O)Nc4ccccc4)c3C2=O)cc1 here?
**A.** 4.98%

**Q.** Which “hERG current change (%, negative = inhibition) at 1uM” value does the source give for Cc1cc(C(=O)COc2ccccc2Cl)c(C)n1C1CC1 here?
**A.** -1.36%

**Q.** For CC(=O)Nc1cccc(Oc2ncnc3scc(-c4ccc(C(C)C)cc4)c23)c1, which “hERG current change (%, negative = inhibition) at 1uM” value is on record?
**A.** 12.6%

**Q.** With CCN1CCN(c2cc(C)c3cc(NC(=S)N4CCC5(CC4)OCCO5)ccc3n2)CC1 as the compound, how does the “hERG current change (%, negative = inhibition) at 1uM” value read?
**A.** 6.44%

**Q.** For N#Cc1ccc(Oc2ccc(C(N)=O)cc2)cc1C#N, which “hERG current change (%, negative = inhibition) at 1uM” value is on record?
**A.** 7.47%

**Q.** How did the “hERG current change (%, negative = inhibition) at 1uM” value turn out when O=C(c1cc2ccccc2oc1=O)N(Cc1ccco1)Cc1cccs1 was run?
**A.** -15.3%

**Q.** How did the “hERG current change (%, negative = inhibition) at 1uM” value turn out when COc1ccc(CNC(=O)CSc2n[nH]c(C)c2[N+](=O)[O-])cc1 was run?
**A.** 24.6%

**Q.** How did the “hERG current change (%, negative = inhibition) at 1uM” value turn out when COC(=O)c1ccc(C(=O)OC)c(NC(=O)COC(=O)c2ccccc2OC)c1 was run?
**A.** 1.45%

**Q.** CC(C)C[C@H]1CN=C(Nc2ccccc2)N1CC1CCC(C)CC1 (stereo partly shown) was tested. Which “hERG current change (%, negative = inhibition) at 1uM” value did it give?
**A.** -23.7%

**Q.** For O=C(c1cc(-c2ccc(Br)cc2)on1)N1CCCC1, which “hERG current change (%, negative = inhibition) at 1uM” value is on record?
**A.** 15.6%

**Q.** Which “hERG current change (%, negative = inhibition) at 1uM” value does the source give for Cc1cc(/C=N/NC(=O)c2nn(C)cc2Cl)c(C)n1-c1cccc(Br)c1 here?
**A.** 5.67%

**Q.** With Cc1ccc(S(=O)(=O)CCC(=O)OCC(=O)NCCc2ccc(F)cc2)cc1 as the compound, how does the “hERG current change (%, negative = inhibition) at 1uM” value read?
**A.** 3.69%

**Q.** For Cc1ccc(OCCCC(=O)Nc2ccc(S(=O)(=O)Nc3cc(C)nc(C)n3)cc2)cc1, which “hERG current change (%, negative = inhibition) at 1uM” value is on record?
**A.** 8.41%

**Q.** For COc1cccc(C(=O)n2cnnc2N)c1OC, which “hERG current change (%, negative = inhibition) at 1uM” value is on record?
**A.** 9.94%

**Q.** How did the “hERG current change (%, negative = inhibition) at 1uM” value turn out when Cc1c(C(=O)NC2CCCc3ccccc32)oc2ccc(S(=O)(=O)N3CCOCC3)cc12 (stereo not shown) was run?
**A.** 7.93%

**Q.** For CN(CC(=O)Nc1ccc(F)cc1)C(=O)c1cn(-c2ccccc2)nc1-c1cccs1, which “hERG current change (%, negative = inhibition) at 1uM” value is on record?
**A.** 5.06%

**Q.** Which “hERG current change (%, negative = inhibition) at 1uM” value does the source give for CC1CCc2c(sc3ncn4c(SCC(=O)NCc5ccco5)nnc4c23)C1 (stereo not shown) here?
**A.** 6.8%

**Q.** With O=C(NCc1ccc2c(c1)OCO2)C1Cc2ccccc2CN1C(=O)c1ccco1 (stereo not shown) as the compound, how does the “hERG current change (%, negative = inhibition) at 1uM” value read?
**A.** -11.6%

**Q.** CCOC(=O)c1c(NC(=O)CS(=O)(=O)c2cn(CC)c3ccccc23)sc2c1CCCC2 was tested. Which “hERG current change (%, negative = inhibition) at 1uM” value did it give?
**A.** 8.85%

**Q.** How did the “hERG current change (%, negative = inhibition) at 1uM” value turn out when Clc1ccc(OCc2noc(-c3ccsc3)n2)c(Cl)c1 was run?
**A.** 24.7%

**Q.** How did the “hERG current change (%, negative = inhibition) at 1uM” value turn out when C#CCN[C@H](C)Cc1ccccc1.Cl was run?
**A.** 14.3%

**Q.** Which “hERG current change (%, negative = inhibition) at 1uM” value does the source give for CN1CC(=O)Nc2ccc(F)cc2C1=O here?
**A.** 11.1%

**Q.** With OCCNc1nc(Nc2ccccc2O)nc(N2CCCC2)n1 as the compound, how does the “hERG current change (%, negative = inhibition) at 1uM” value read?
**A.** 6.49%

**Q.** For COCCn1c(-c2ccccc2)nc(=S)c2c1CC(C)(C)OC2, which “hERG current change (%, negative = inhibition) at 1uM” value is on record?
**A.** -8.98%

**Q.** How did the “hERG current change (%, negative = inhibition) at 1uM” value turn out when C=CCNc1nnc(SCC(=O)N2CCC(C(N)=O)CC2)s1 was run?
**A.** -12%

**Q.** With COc1cc(NS(=O)(=O)c2ccc(Cl)cc2)c(C(=O)O)cc1OC as the compound, how does the “hERG current change (%, negative = inhibition) at 1uM” value read?
**A.** 0.636%

**Q.** How did the “hERG current change (%, negative = inhibition) at 1uM” value turn out when O=C1CCN(Cc2ccc(Br)cc2)CCN1CCO was run?
**A.** 12%

**Q.** Cc1cc(C)n2nc(SC(C)C(=O)N(C)c3ccccc3)nc2n1 (stereo not shown) was tested. Which “hERG current change (%, negative = inhibition) at 1uM” value did it give?
**A.** 15.5%

**Q.** Cc1[nH]c2ccccc2c1C(=O)COC(=O)c1ccc[n+]([O-])c1 was tested. Which “hERG current change (%, negative = inhibition) at 1uM” value did it give?
**A.** 8.84%

**Q.** Which “hERG current change (%, negative = inhibition) at 1uM” value does the source give for Cc1cc(C)c(NC(=O)c2ccc(CNS(=O)(=O)c3cc(C(F)(F)F)ccc3Cl)cc2)c(C)c1 here?
**A.** 10.5%

**Q.** Which “hERG current change (%, negative = inhibition) at 1uM” value does the source give for N/C(CS(=O)(=O)c1ccccn1)=N\OC(=O)c1ccc(Cl)cc1 here?
**A.** 6%

**Q.** Which “hERG current change (%, negative = inhibition) at 1uM” value does the source give for Cc1cc2c(c(SCC(=O)NCc3ccccc3Cl)n1)C(=O)OC2 here?
**A.** 6.32%

**Q.** For C[C@@H](NC(=O)c1nc[nH]c1C(=O)N(C)Cc1ccccc1)c1ccccc1, which “hERG current change (%, negative = inhibition) at 1uM” value is on record?
**A.** 5.91%

**Q.** Which “hERG current change (%, negative = inhibition) at 1uM” value does the source give for CCOc1cc(C)c(Cl)cc1S(=O)(=O)n1ccnc1 here?
**A.** 21.2%

**Q.** COc1cc(S(=O)(=O)N(Cc2ccc(C)cc2)Cc2ccco2)ccc1-n1cnnn1 was tested. Which “hERG current change (%, negative = inhibition) at 1uM” value did it give?
**A.** 11.9%

**Q.** Cc1ccc(NC(=O)Cn2c(=O)oc3ccccc32)cc1 was tested. Which “hERG current change (%, negative = inhibition) at 1uM” value did it give?
**A.** 13.7%

**Q.** With CCOC(=O)C1=C(N)OC2=C(C(=O)CCC2)C1c1ccco1 (stereo not shown) as the compound, how does the “hERG current change (%, negative = inhibition) at 1uM” value read?
**A.** 10.2%

**Q.** With CCN(CC(=O)Nc1cccc(OC)c1)c1ncnc2sc(C)c(C)c12 as the compound, how does the “hERG current change (%, negative = inhibition) at 1uM” value read?
**A.** 6%

**Q.** COc1ccc(C)cc1NC(=O)CSc1nnc(-c2ccc(OC)c(OC)c2)n1N was tested. Which “hERG current change (%, negative = inhibition) at 1uM” value did it give?
**A.** 5.2%

**Q.** For CC(C)=CCc1cc2c(=O)c3c(O)c4c(cc3oc2c(O)c1O)OC(C)C4(C)C (stereo not shown), which “hERG current change (%, negative = inhibition) at 1uM” value is on record?
**A.** 1.68%

**Q.** CC(C)[C@H](NC(=O)N1CC(=O)Nc2ccccc21)C(=O)N[C@@H](Cc1c[nH]c2ccccc12)C(=O)O was tested. Which “hERG current change (%, negative = inhibition) at 1uM” value did it give?
**A.** 7.96%

**Q.** With CC(=O)c1c(C)[nH]c(C(=O)NCc2ccccc2F)c1C as the compound, how does the “hERG current change (%, negative = inhibition) at 1uM” value read?
**A.** 7.02%
